The results in this text go back to ChEMBL document CHEMBL1201862, “PubChem BioAssay data set” (2004).

The structures appear in SMILES notation.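 In this assay, cells in 96-well plates receive the compound at five concentrations for 48 hours. Endpoints are linearly interpolated between the surrounding concentrations. GI50 marks 50% less growth.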 Calls of active or inactive are those of the source. Rule as the data show it: active = GI50 up to about 1.1 µM and inactive = higher.

The assay relates to NCI-H322M. The assay is described as follows: NCI-60 cell line screen, 48 h.
In the case of `COC1=CC(=O)c2c(c(COP(=O)(N(C)CCBr)N(C)CCBr)cn2C)C1=O`, the GI50 was active: 0.627 µM.

Consider `CCOC(=O)CCc1ccc(NC(=O)/C=C/c2ccc([N+](=O)[O-])o2)cc1`, for which the GI50 is inactive: 1.8 µM.

As to `CN(C)CCCNC(=O)c1cn2c(ccc3sc4ccccc4c(=O)c32)n1`, the GI50 was inactive: 6.21 µM.

For the compound `S=C(NCc1ccccc1)N/N=C/c1ccccn1`, the GI50 was inactive: 7.23 µM. The figure for `CCCCOc1c(C(=O)O)cc(Br)cc1C(=O)O` is inactive: > 100 µM.

In the case of `C=C1CN(C(=O)c2cc3cc(OC)c(OC)c(OC)c3[nH]2)c2cc([N+](=O)[O-])ccc21`, the GI50 was inactive: > 100 µM. Take `COc1ccc(/C=C/c2ccnc3ccccc23)cc1OC`: the GI50 is inactive: 28.4 µM. Turning to `CC(=O)OCC1OC(O[C@@H]2C[C@H]3C(C)(C)[C@@H](OC(C)=O)CC[C@]3(C)[C@H]3CC[C@]45C[C@]4(CC[C@H]5[C@@H](C)C[C@@H](O)[C@H](O)C(C)(C)F)[C@@]32C)C(O)C(O)C1O` (stereo not given in full), the GI50 was inactive: 1.64 µM. For the compound `CC(C)[S+]1C2=C(CC(C)(C)CC2=O)[N-]c2ccccc21` (stereo not given), the GI50 was inactive: > 100 µM. As to `CC(C)(C)c1cc(CCC(=O)Nc2ccc(Cl)cc2)nc(NC#N)n1`, the GI50 was inactive: > 100 µM. On to `Cc1ccc2c(c1)C(=O)N1CCC[C@H]1C=N2`, for which the GI50 was inactive: 32.8 µM.

Turning to `CC(=O)c1cc(I)c(O)c2ncccc12`, the GI50 was inactive: 5.16 µM. Regarding `C=COC(=O)N1C2CCCC(Cl)(C(C)=O)C1CC2` (stereo not given), the GI50 was inactive: > 100 µM. Regarding `CC(=O)O/C=C(/C=C/OC(C)=O)C(C/C=C(\C)C#CC=C(C)C)OC(C)=O` (stereo not given), the GI50 was inactive: 68.4 µM. Regarding `COC(=O)Cc1cc2c(cc1C(=O)c1ccc(N)cc1)OCO2`, the GI50 is inactive: > 31.4 µM.

As for `COc1cc2c3c(c1OC)C1(C=CC(=O)C=C1)CC3N(C(=O)OC(C)(C)C(Cl)(Cl)Cl)CC2` (stereo not given), the GI50 was inactive: 16.3 µM. With `CSC(SC)=C(C(=O)O)P(=O)(O)O`, the GI50 is inactive: > 100 µM. On to `O=C(/C=C/c1ccc2c(c1)OCO2)CC(=O)/C=C/c1ccc2c(c1)OCO2`, for which the GI50 was inactive: > 100 µM. In the case of `NC(=S)N/N=C(\Cc1nc2ccc(Cl)cc2nc1O)C(=O)Nc1ccc(Cl)cc1`, the GI50 was inactive: > 100 µM. For the compound `Brc1c2nc3ccccc3nc2n2ccc3ccccc3c12`, the GI50 was inactive: > 100 µM. For `O=C(O)c1ccccc1NC(=O)C1CCCCC1`, the GI50 was inactive: > 100 µM.

For the compound `CC12OOC(c3ccccc31)c1c2ccc2ccccc12` (stereo not given), the GI50 is inactive: 16.5 µM. The value for `Nc1nc(Cl)cc(/N=N\c2ccccc2)n1` was inactive: 41.7 µM; that for `O=P1(N(CCCl)CCCl)Oc2c(Cl)cc(Cl)c(Cl)c2Cc2c(Cl)c(Cl)cc(Cl)c2O1` was inactive: 53.3 µM; that for `Cc1ccc(S(=O)(=O)C2=C(C(C)C)N=NC2(C)C)cc1` was inactive: > 100 µM. `Cc1ccc2c(c1C)CC1(Cc3c(C)ccc(C)c3C1=O)C2=O` (stereo not given): the GI50 was inactive: > 100 µM. The value for `Cc1cc(Br)cc(C)c1NC(=O)C(=O)CC(=O)c1sc(-n2nc(-c3ccccc3)cc2-c2ccccc2)nc1C` was inactive: 82.4 µM. In the case of `O=C(O)c1ccc(N/C(=C(/C(Cl)=C(Cl)Cl)[N+](=O)[O-])n2nnc3ccccc32)cc1`, the GI50 is inactive: > 100 µM.

Take `CC(=O)OC/C=C(\C)CCC(Br)C(C)(C)Br` (stereo not given): the GI50 was inactive: > 10 µM. For the compound `N#Cc1c(N)oc(-c2cccc([N+](=O)[O-])c2)c1C#N`, the GI50 is inactive: 72.8 µM.

On to `CCOC(=O)C(=CNc1ccc(N(C2=NCC(C)S2)c2ccc(F)c(Cl)c2)cc1)C(=O)OCC` (stereo not given), for which the GI50 was inactive: 25 µM. On to `O=c1cc2n(c(=O)[nH]1)C1OC(C(O)C1O)[C@@H]2CCO` (stereo not given in full), for which the GI50 is inactive: > 100 µM. In the case of `CN1B(c2ccccc2)N(C)C(=O)N(C)C1=O`, the GI50 is inactive: > 100 µM. Take `CCNC(=O)OCc1c(COC(=O)NCC)c(-c2ccc(Cl)c(Cl)c2)n2c1CCC2`: the GI50 is inactive: 17.3 µM. The value for `C=CCC1C(=O)C(C(=O)OC)N2CCc3c([nH]c4ccccc34)C12` (stereo not given) was inactive: > 100 µM; that for `O=C1c2cn[nH]c2N=C(Nc2ccccc2)C1/N=C/c1ccc([N+](=O)[O-])cc1` (stereo not given) was inactive: > 10 µM; that for `COc1cc(Cn2c3c(c4c(CN(C)C)c(O)ccc42)C(=O)c2ccccc2C3=O)cc(OC)c1` was inactive: 67.6 µM.

With `CC(=O)Nc1ccc(/N=C2\C(c3ccccc3)=C(SC3=C(c4ccccc4)/C(=N\c4ccc(NC(C)=O)cc4)c4ccccc43)c3ccccc32)cc1`, the GI50 was inactive: 57.9 µM. For `On1c(-c2ccccc2)c(-c2c(-c3ccccc3)n(O)c3ccccc23)c2ccccc21`, the GI50 was inactive: 30.6 µM. The figure for `N=C(N)SCc1cn2ccccc2n1` is inactive: > 100 µM; for `COC(=O)C12C(=O)CC3CCC1C32C(=O)OC` (stereo not given) it is inactive: > 100 µM. With `NC(=O)c1oc([N+](=O)[O-])c(-c2ccccc2)c1-c1ccccc1`, the GI50 is inactive: 17.4 µM. The figure for `Cc1nccn1S(=O)(=O)c1ccc(Cl)cc1` is inactive: 52.4 µM; for `O=C1OCOC2(CCCC2)C1c1ccccc1` (stereo not given) it is inactive: > 100 µM. Consider `CCCCCCCCCCCCCCCCCCNc1ccn(C2OC(COP(=O)(O)OCC3OC(n4ccc(NC(=O)CCCCCCCCCCCCCCCCC)nc4=O)C(OC(C)=O)C3OC(C)=O)C(OC(C)=O)C2OC(C)=O)c(=O)n1` (stereo not given), for which the GI50 was inactive: > 100 µM. The value for `N=C(CCl)NC1CN2CCC1CC2` (stereo not given) was inactive: > 100 µM. In the case of `C/C(=N\NC(=S)Nc1ccc(C(=O)O)cc1)c1ccccn1`, the GI50 was inactive: 17.9 µM. For the compound `O=C1c2ccccc2C2(c3ccc(Cl)cc3)N[C@@H]3CCCC[C@@H]3N12` (stereo not given in full), the GI50 was inactive: > 100 µM. As to `O=c1c2ccccc2n2cnc3ccc(NCCNCCO)c1c32`, the GI50 was inactive: 1.4 µM. Turning to `O=C1CCC2(CC1CC[S+]([O-])c1ccccc1)OCCO2` (stereo not given), the GI50 was inactive: > 100 µM. For `COc1cccc(N2C(=O)CSC2c2cc(OC)c(OC)c(OC)c2)c1` (stereo not given), the GI50 was inactive: 38.5 µM. For `CC(C)(C)NCC(COc1ccc([N+](=O)[O-])cc1)OP(c1ccccc1)c1ccccc1` (stereo not given), the GI50 is inactive: 56.6 µM. Regarding `CC1CCC2(CC1)NC1=C(CC(C)CC1)C1=C2CC(C)CC1` (stereo not given), the GI50 was inactive: 23.8 µM. For the compound `COc1cccc(NC(=O)/C(CC(=O)CC(c2ccccc2)c2c(O)c3ccccc3oc2=O)=N\NC(C)(C)C)c1OC` (stereo not given), the GI50 was inactive: 45.1 µM. As to `CCCCc1ccc(Nc2nc(Cl)c3ccn(C4CC(Oc5ccc(C)cc5)C(COc5ccc(C)cc5)O4)c3n2)cc1` (stereo not given), the GI50 was inactive: > 46.5 µM.

Turning to `c1ccc(C2=NOC3(c4ccccc4)SC4CCCCC4CN23)cc1` (stereo not given), the GI50 was inactive: 46.8 µM.

For `O=C1Oc2ccccc2C(=O)/C1=C/N1C(=O)/C(=C/c2ccc3c(c2)OCO3)SC1=S`, the GI50 is inactive: 28.4 µM.

With `CS(=O)(=O)c1nc(-c2cc3c(c(S(C)(=O)=O)n2)CCC3)cc2c1CCCCC2`, the GI50 is inactive: > 100 µM. For `Cc1coc2c1C[C@@]1(C)[C@H](CCC[C@@H]1C)[C@H]2O`, the GI50 was inactive: > 100 µM. As to `CCOC(=O)C(SCCO)C(C(=O)OCC)n1ccc(=O)[nH]c1=O` (stereo not given), the GI50 was inactive: > 100 µM. The figure for `C=C1C[C@@H]2O[C@H]3[C@H]4[C@@H](C[C@@H](C)[C@@H](OC(C)=O)[C@H]42)[C@@H](C)CO[C@@]3(C)[C@H](OC(=O)CCCCCCC)CC1=O` is inactive: 24.3 µM; for `O=C(CC(=O)c1cccc2ccccc12)C(=O)Nc1nccs1` it is inactive: > 100 µM; for `COC(=O)C1=C(C(=O)OC)C2(C)OC1C(=O)C21CC1` (stereo not given) it is inactive: 71.6 µM.

With `COc1cc(OC)c2c(c1)OC(c1cccnc1)C(c1ccccc1)C2=O` (stereo not given), the GI50 was inactive: > 100 µM. Take `Cc1cccc(C(O)c2cccnc2)c1O` (stereo not given): the GI50 is inactive: > 100 µM. For the compound `Nc1c(-c2cccc3ccccc23)c2ccc([N+](=O)[O-])cc2c(=O)n1-c1nc2ccccc2s1`, the GI50 was inactive: 5.32 µM. The figure for `O=C(c1ccccc1)c1oc2ccc(Br)cc2c1-c1cnn(-c2ccccc2)c1` is inactive: > 100 µM. The figure for `CC(=O)OCCOCNC(=S)N/N=C/c1ccc([N+](=O)[O-])o1` is inactive: > 100 µM. The value for `CC1=C(C(=O)Nc2ccccc2C)C(c2ccc(C3C(C(=O)Nc4ccccc4C)=CNC=C3C(=O)Nc3ccccc3C)cc2)C(C(=O)Nc2ccccc2C)=C(C)N1` was inactive: 15.3 µM. For `Cn1c(-c2ccco2)ccc1-c1ccc(C=O)o1`, the GI50 is inactive: > 100 µM. The figure for `COC(=O)c1ccc(NCC2=CC(=O)C=CC2=O)cc1` is inactive: 17.1 µM; for `O=C(NCCN1CCOCC1)c1ccc2cc(C(=O)N3CC(CCl)c4ccc([N+](=O)[O-])cc43)[nH]c2c1` (stereo not given) it is inactive: 27 µM.

As for `COc1cc(-c2ccc(/N=N/c3ccc4c(S(=O)(=O)O)cc(S(=O)(=O)O)c(N)c4c3O)c(OC)c2)ccc1/N=N/c1ccc2c(S(=O)(=O)O)cc(S(=O)(=O)O)c(N)c2c1O`, the GI50 is inactive: > 100 µM.

Turning to `NC(=O)OCC1=C(COC(N)=O)C(=O)c2c(O)ccc(O)c2C1=O`, the GI50 was inactive: > 100 µM. For the compound `CC12C=C[C@]3(CC[C@@H]4[C@@](C)(CO)CCC[C@]4(C)C3CC1)C2` (stereo not given in full), the GI50 is inactive: > 41.5 µM. With `CC1=C2CC[C@@]3(C)C(=CCC3O)C2(C)CCC1=O` (stereo not given in full), the GI50 is inactive: > 100 µM. As to `CN(Cc1cnc2nc(N)nc(N)c2n1)c1ccc(C(=O)NCCCS(=O)(=O)O)cc1`, the GI50 was inactive: > 100 µM. On to `O=c1c(C(c2ccco2)c2c(O)oc3ccccc3c2=O)c(O)oc2ccccc12`, for which the GI50 was inactive: > 100 µM. The value for `COc1ccc(-c2oc3c(CC(=O)O)cccc3c(=O)c2OC)cc1` was inactive: > 100 µM; that for `CN(C)Cc1cc(/C(=C(\C#N)c2ccccc2)c2ccc(O)cc2)ccc1O` was inactive: 13.3 µM.
